Reference: the supplement of paper PMC3334620
Over roughly 33,000 sequences, “E-score (-0.5 to 0.5)” has its median near -0.021; the highest 2% begin near 0.32. This is one part of the list.

target: T1, Zap1 (UniProt P47043); assay: PBM E-score (8-mer binding enrichment) (E-score (-0.5 to 0.5)); higher = stronger / more preferred TF binding; most listed sequences are background and not binding sites; conditions: protein concentration: 200 nM; construct: GST-full length
T1 sequence: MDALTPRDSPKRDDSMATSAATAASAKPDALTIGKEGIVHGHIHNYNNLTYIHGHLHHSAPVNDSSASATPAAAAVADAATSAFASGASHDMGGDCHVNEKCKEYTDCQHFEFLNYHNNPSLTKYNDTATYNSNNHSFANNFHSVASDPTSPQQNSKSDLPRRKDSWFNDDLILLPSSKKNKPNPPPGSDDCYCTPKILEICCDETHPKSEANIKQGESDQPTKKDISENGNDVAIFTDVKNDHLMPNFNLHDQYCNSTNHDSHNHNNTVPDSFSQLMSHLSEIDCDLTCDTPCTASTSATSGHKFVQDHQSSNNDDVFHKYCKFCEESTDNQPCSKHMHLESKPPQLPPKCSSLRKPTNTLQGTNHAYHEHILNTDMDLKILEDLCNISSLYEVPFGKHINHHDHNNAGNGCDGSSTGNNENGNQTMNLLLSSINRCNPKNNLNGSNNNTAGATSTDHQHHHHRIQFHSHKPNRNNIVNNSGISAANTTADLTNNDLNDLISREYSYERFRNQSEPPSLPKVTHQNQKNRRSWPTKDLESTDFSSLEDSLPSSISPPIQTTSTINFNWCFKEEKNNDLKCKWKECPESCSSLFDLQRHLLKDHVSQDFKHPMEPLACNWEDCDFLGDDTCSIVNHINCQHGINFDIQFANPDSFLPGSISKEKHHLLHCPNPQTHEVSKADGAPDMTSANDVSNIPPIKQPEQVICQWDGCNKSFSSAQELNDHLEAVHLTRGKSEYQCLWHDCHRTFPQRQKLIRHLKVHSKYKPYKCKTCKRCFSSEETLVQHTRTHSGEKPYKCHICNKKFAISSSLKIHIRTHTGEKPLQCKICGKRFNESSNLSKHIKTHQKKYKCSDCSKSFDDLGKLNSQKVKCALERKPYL
Summary of the method: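 Detection of bound protein used fluorescent anti-GST, with scans normalised by masliner. The proteins were GST-tagged yeast transcription factors applied at about 100-200 nM to universal all-10-mer Agilent arrays made double-stranded by primer extension. Each ungapped eight-base word, pooled with its reverse complement, was scored with an E-score from the Universal PBM Analysis Suite.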

Row | Sequence | PBM E-score
1 | AGATACTA | -0.0794
2 | AGGCCCTA | -0.0142
3 | AGCCATCA | -0.137
4 | GACTGAAA | 0.0185
5 | CGAAAACC | 0.274
6 | AATATTAT | 0.0902
7 | CGTTAACC | 0.294
8 | TCTAGGAA | -0.0336
9 | GAGAAAGA | 0.111
10 | CCGATTTA | 0.0418
11 | ACCTAAGA | 0.193
12 | ATACCATG | 0.0791
13 | ACAAATCT | 0.112
14 | AGGAATAA | 0.118
15 | GGCTCGCA | -0.134
16 | ACCCTGCC | 0.186
17 | ATTGGAAG | -0.0234
18 | GCACAATA | -0.0647
19 | ATGTATCC | -0.222
20 | GATGCGAA | -0.149
21 | CTCCTGCC | -0.312
22 | GGCAATAA | -0.0396

Row | Sequence | PBM E-score
23 | AGAAACTG | -0.0216
24 | CGACTTAA | -0.0837
25 | CGAACTGC | -0.137
26 | TGTCGAAA | -0.0156
27 | AGTAAGGG | 0.241
28 | ATCTAGTG | -0.0857
29 | CAATAGTG | 0.00976
30 | GGTGGAGA | -0.266
31 | CAGATTGA | -0.0519
32 | GGAAAGCA | -0.139
33 | CTGGTGAC | -0.0173
34 | AGGGGTGG | 0.131
35 | GATCAAGC | -0.0745
36 | CAAGACTG | -0.129
37 | CATCCGTA | 0.0269
38 | CCGCCAAG | -0.0908
39 | GAGCACCA | 0.00973
40 | CACACGTG | 0.0023
41 | ACAAGACG | -0.133
42 | CGCCTGGC | -0.305
43 | AGTTTAAT | 0.113
44 | TCTTGGCA | -0.0566

Row | Sequence | PBM E-score
45 | AATCTAAG | 0.0186
46 | AAACCGCT | -0.0552
47 | ACATGGTC | -0.0378
48 | CCTGAGCC | -0.123
49 | CCAACATC | -0.104
50 | AAACGAGC | -0.11
51 | ACACGTCT | -0.137
52 | CTTGTACA | -0.0389
53 | ATTCACCA | 0.0528
54 | CTACACCA | 0.144
55 | CTCGGCAC | -0.0659
56 | ACGTGTGG | -0.148
57 | CGTTCTGC | -0.111
58 | AAGGCTAC | 0.00201
59 | ACCAAGCC | -0.026
60 | AGTTGTGG | 0.184
61 | CCCAGAAA | 0.167
62 | GGGCAAAC | -0.0731
63 | TAGCCGGA | -0.112
64 | GACGCCAA | 0.0748
65 | AACGACAG | -0.168
66 | GAAGAGTA | -0.0467

Row | Sequence | PBM E-score
67 | CGGGAACA | 0.0194
68 | AAATAGAG | 0.0432
69 | CCAAGCTA | -0.0368
70 | ATCTCAAA | 0.0922
71 | ACACTGAA | 0.111
72 | GCGACAAA | 0.148
73 | GACTCCAA | -0.0824
74 | TGTGGCAA | 0.0137
75 | CATGGGAG | 0.0124
76 | CAAGACTA | -0.1
77 | GATATCAA | 0.0972
78 | GAACTGCA | -0.0204
79 | CGCGGTAG | 0.122
80 | CCTGACCA | 0.299
81 | GCTACAGA | -0.283
82 | CAGACTTA | -0.218
83 | AACATACC | 0.18
84 | TCTCCGAA | -0.174
85 | AGATTGAA | -0.0374
86 | TCATACCA | 0.199
